From PubChem BioAssay AID504333 (National Center for Advancing Translational Sciences (NCATS), 2011)
Screen size: about 360,000 compounds; about 16,000 (4.4%) were called active. This list was built around the results that the source calls inconclusive (neither active nor inactive); the mix of calls is not that of the screen. Calls come from the whole dose curve; as a rule, active = well fitted inhibition curve with a large enough effect; inconclusive = small, poorly fitted or top-dose-only effect; inactive = no such curve, though single readings can be large or run the other way. Potencies of inconclusive entries are doubtful fits and often do not repeat. More than one record can exist for a structure, and the calls need not agree.

Biological target: Bromodomain adjacent to zinc finger domain protein 2B (Homo sapiens) (UniProt Q9UIF8)
UniProt Q9UIF8, sequence (Q9UIF8 whole entry, looked up, the tested form may be a part): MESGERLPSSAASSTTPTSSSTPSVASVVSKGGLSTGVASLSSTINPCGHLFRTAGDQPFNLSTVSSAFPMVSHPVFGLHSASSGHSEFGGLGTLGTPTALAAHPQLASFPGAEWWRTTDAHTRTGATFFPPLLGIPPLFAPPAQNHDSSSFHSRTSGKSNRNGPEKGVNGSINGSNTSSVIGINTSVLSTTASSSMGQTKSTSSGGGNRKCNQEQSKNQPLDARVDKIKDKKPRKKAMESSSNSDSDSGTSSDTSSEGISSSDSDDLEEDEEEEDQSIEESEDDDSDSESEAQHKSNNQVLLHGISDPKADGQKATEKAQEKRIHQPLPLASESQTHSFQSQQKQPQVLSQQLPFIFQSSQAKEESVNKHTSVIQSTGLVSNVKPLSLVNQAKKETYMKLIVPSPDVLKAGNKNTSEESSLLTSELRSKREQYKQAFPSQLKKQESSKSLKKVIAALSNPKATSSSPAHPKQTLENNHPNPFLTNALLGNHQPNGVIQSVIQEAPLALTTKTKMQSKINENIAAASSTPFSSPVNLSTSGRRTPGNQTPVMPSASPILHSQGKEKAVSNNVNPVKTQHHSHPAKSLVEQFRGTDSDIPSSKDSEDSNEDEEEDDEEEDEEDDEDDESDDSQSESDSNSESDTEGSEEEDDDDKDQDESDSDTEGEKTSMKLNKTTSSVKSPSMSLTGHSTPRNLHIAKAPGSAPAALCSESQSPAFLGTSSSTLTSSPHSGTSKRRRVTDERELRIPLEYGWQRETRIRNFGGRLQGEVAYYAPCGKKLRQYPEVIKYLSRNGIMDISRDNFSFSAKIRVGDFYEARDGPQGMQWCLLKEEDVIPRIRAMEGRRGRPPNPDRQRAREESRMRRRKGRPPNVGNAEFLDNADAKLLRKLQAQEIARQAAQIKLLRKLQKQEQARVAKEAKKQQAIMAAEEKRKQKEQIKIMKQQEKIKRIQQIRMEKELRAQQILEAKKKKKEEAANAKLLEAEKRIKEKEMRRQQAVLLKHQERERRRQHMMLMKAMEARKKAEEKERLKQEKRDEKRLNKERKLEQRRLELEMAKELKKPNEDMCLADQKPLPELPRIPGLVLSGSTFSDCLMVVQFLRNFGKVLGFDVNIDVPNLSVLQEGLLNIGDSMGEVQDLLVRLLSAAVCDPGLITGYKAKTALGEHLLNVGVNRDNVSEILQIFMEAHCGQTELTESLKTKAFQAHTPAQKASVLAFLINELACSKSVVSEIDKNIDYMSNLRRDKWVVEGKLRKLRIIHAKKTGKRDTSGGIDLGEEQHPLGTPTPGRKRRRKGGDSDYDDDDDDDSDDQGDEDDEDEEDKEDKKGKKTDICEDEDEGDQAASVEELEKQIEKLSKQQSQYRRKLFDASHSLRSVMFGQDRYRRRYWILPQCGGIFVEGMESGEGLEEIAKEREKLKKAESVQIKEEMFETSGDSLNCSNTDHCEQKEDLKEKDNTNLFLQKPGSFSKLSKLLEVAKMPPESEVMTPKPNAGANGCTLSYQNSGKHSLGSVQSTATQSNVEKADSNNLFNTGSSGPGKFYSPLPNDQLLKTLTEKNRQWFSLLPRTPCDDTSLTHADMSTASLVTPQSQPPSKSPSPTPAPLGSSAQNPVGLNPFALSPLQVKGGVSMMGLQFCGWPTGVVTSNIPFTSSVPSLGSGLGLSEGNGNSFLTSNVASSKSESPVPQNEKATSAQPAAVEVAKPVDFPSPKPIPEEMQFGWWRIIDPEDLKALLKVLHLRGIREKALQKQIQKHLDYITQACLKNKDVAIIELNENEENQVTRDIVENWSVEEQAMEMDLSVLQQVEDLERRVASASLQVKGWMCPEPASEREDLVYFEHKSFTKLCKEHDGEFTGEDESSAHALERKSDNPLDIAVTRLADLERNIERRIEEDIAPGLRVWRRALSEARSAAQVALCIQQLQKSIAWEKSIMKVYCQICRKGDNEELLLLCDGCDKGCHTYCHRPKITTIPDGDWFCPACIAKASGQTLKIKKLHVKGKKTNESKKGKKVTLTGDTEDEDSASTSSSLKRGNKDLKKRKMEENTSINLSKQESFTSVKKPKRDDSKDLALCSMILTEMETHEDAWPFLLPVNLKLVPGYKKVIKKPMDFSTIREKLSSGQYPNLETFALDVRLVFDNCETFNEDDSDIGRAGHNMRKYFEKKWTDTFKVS
Assay: qHTS Assay for Inhibitors of BAZ2B; note: nearly all actives have a fitted effect of over 60% in size
Conditions: AlphaScreen BAZ2B-H3K14Ac peptide displacement; activity change, negative = inhibition: at 114 µM (top of the series)
Procedure, shortened: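 Multi-concentration screen (max 110 uM) measuring displacement of acetylated histone H3 peptide from BAZ2B by AlphaScreen, using 50 nM protein, 50 nM peptide and 10 ug/mL streptavidin donor plus Ni-chelate acceptor beads.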
% is set by controls: 0 for no effect and ±100 for the full control effect; potency is the fitted concentration of half-maximal effect; tags give direction and shape of the fitted curve.

| Compound | activity change, negative = inhibition | Potency |
| --- | --- | --- |
| Cc1ccccc1OCC(=O)Nc1ccc2nc(SCC(=O)N3CCCC3)sc2c1 | inactive: -11.4% | – |
| c1cncc(CNCc2ccco2)c1 | – | active: 70.8 µM |
| O=C1C(Cl)=C(Nc2ccccc2O)C(=O)N1CCc1ccccc1 | – | active: 31.6 µM |
| N#CCCN(Cc1cccnc1)C(=O)Nc1ccc(Cl)c(Cl)c1 | inactive: -1.04% | – |
| COc1ccc2[nH]cc(CCNC(=O)Nc3cc(C)cc(C)c3)c2c1 | inactive: -30.7% | – |
| Clc1cccc(CN2CCC(Cc3ccccc3)CC2)c1 | – | active: 50.1 µM |
| COc1ccc(C(=O)NCc2ccc(C)cc2)cc1S(=O)(=O)N1CCCC1 | – | inconclusive: 89.1 µM [inhibitor, single point] |
| COc1ccccc1Nc1nc(-c2ccccc2)c(CC(=O)O)s1 | inactive: -25% | – |
| COc1ccc2c(c1)c1c(c(=O)n(-c3cccc(C)c3)c(=O)n1CC(=O)NCCC1=CCCCC1)n2C | inactive: 0.635% | – |
| CCc1ccc(/C=C2/SC(=S)N(CCC(=O)Nc3ccc(C(=O)O)cc3)C2=O)cc1 | – | inconclusive: 2.82 µM [inhibitor, single point] |
| FC(F)(F)c1cccc(N2CCC(N=CN3CCCCCC3)=N2)c1 | – | active: 39.8 µM |
| COc1ccc(C(=O)CCc2ccccc2)cc1 | inactive: 101% | – |
| Cc1c(/C=N/Nc2nc3ccccc3[nH]2)c2ccccc2n1C | – | active: 17.8 µM |
| O=C(CSc1nc2scc(-c3ccco3)c2c(=O)n1-c1ccccc1)NCC1CCCO1 (centres undefined) | – | active: 35.5 µM |
| CC(=O)Nc1ccc(Nc2ccc3cc(S(=O)(=O)N4CCCCC4)ccc3n2)cc1 | – | inconclusive: 79.4 µM [inhibitor, single point] |
| Cc1ccc(-c2ccc(C3C(C#N)=C(N)Oc4n[nH]c(C)c43)o2)cc1 (centres undefined) | – | inconclusive: 79.4 µM [inhibitor, single point] |
| COc1ccc(NC(=O)NNC(=O)c2ccccc2-n2cccc2)cc1OC | – | inconclusive: 89.1 µM [inhibitor, single point] |
| Cc1ccc(-c2nc(S(=O)(=O)c3ccc(C)cc3)c(N(C)C)o2)cc1 | – | inconclusive: 50.1 µM [inhibitor, partial curve] |
| O=C(NCCCn1ccnc1)Nc1cccc(Cl)c1 | – | active: 25.1 µM |
| COc1ccc(CNc2nc(-c3cccnc3)nn2C(=O)C(C)C)cc1 | – | inconclusive: 100 µM [inhibitor, single point] |
| COc1ccc2c(CCNC(=O)CN3C(=O)c4ccccc4C3=O)c[nH]c2c1 | – | inconclusive: 89.1 µM [inhibitor, single point] |
| O=S(=O)(c1ccc(NCCCO)nc1)N1CCOCC1 | – | inconclusive: 1.41 µM [inhibitor, full curve, poor fit] |
| CCOc1ccc(CCNC(=O)CCCn2c(=O)c3cccn3c3cccnc32)cc1 | inactive: -10.4% | – |
| CN(c1ccccc1)c1nc(N)c([N+](=O)[O-])c(N2CCCCC2)n1 | – | inconclusive: 44.7 µM [inhibitor, partial curve] |
| O=C(C(=O)N1CCN(c2ccc(F)cc2)CC1)c1c[nH]c2ccccc12 | – | inconclusive: 56.2 µM [inhibitor, partial curve] |

| Compound | activity change, negative = inhibition | Potency |
| --- | --- | --- |
| CSCCC(NC(=O)c1ccc([N+](=O)[O-])cc1Cl)C(=O)OCC(=O)NC1CCCC(C)C1C (centres undefined) | – | inconclusive: 70.8 µM [inhibitor, single point] |
| Cc1cccc2[nH]c3c(N4CC=C(c5ccc(F)cc5)CC4)ncnc3c12 | inactive: -28.4% | – |
| CCCN1CCCc2cc(CN(CCCN3CCOCC3)C(=O)Nc3ccc(Cl)c(Cl)c3)ccc21 | – | active: 11.2 µM |
| Cc1ccc(NC(=S)NNC(=O)c2ccccc2O)c(C)c1 | – | inconclusive: 0.708 µM [inhibitor, full curve, poor fit] |
| CCOC(=O)N1CCC(N(CCN(C)C)C(=S)Nc2ccc(Oc3ccccc3)cc2)CC1 | – | inconclusive: 17.8 µM [inhibitor, full curve] |
| CC1=C(c2ccc(Cl)cc2)S(=O)(=O)N=C1N1CCN(c2cc(C)ccc2C)CC1 | – | inconclusive: 89.1 µM [inhibitor, single point] |
| CN1CCN(c2ccccc2NC(=O)c2ccc([N+](=O)[O-])o2)CC1 | – | inconclusive: 79.4 µM [inhibitor, single point] |
| COc1ccccc1CNC(=O)C1CCN(S(=O)(=O)Cc2ccccc2)CC1 | inactive: 2.74% | – |
| CCOc1ccc(N(C)C(=O)CCc2nnc3ccc(NCc4ccco4)nn23)cc1 | – | inconclusive: 28.2 µM [inhibitor, single point] |
| COc1ccc(C(=O)NCCSC2CCCCC2)cc1 | inactive: -10.9% | – |
| O=C(CSCc1c(Cl)cccc1Cl)Nc1nccs1 | – | inconclusive: 39.8 µM [inhibitor, single point] |
| NNC(=O)Cn1cnc2ccccc21 | – | inconclusive: 89.1 µM [inhibitor, single point] |
| Cc1cccc(NC(=O)N2CCC(NC(=O)c3ccco3)CC2)c1 | – | inconclusive: 79.4 µM [inhibitor, single point] |
| CCN(CC)c1ccc(/C=C(\C#N)c2nc(-c3cccs3)c(NC(C)=O)s2)cc1 | – | active: 20 µM |
| CCCCC(=O)Nc1ccc(C(=O)Nc2ccc(OC)cc2[N+](=O)[O-])cc1 | inactive: -12.1% | – |
| Clc1ccc(CSc2nncn3c2cc2occc23)cc1 | – | active: 44.7 µM |
| COc1ccc(OC)c(C2=NOC(C(=O)Nc3ccc4c(c3)OCCO4)C2)c1 (centres undefined) | – | inconclusive: 79.4 µM [inhibitor, partial curve] |
| CC1CCN(CCNC(=O)c2ccc3c(=O)n(Cc4ccc(Cl)cc4)c(=S)[nH]c3c2)CC1 | – | inconclusive: 20 µM [inhibitor, full curve] |
| Cc1cc(C)cc(N=c2c([N+](=O)[O-])nn(-c3cccc(Cl)c3)n2O)c1 | – | inconclusive: 11.2 µM [inhibitor, partial curve] |
| O=C(Nc1ccc(Cl)cc1C(=O)NCC1CCCO1)c1ccco1 (centres undefined) | – | inconclusive: 89.1 µM [inhibitor, single point] |
| CCCn1c(C(C)Nc2nc(-c3ccc(OC)cc3)cs2)nc2ccccc21 (centres undefined) | – | inconclusive: 56.2 µM [inhibitor, partial curve] |
| CCOC(=O)c1c(S(=O)(=O)N2CCC(C(=O)NCc3ccccc3Cl)CC2)c(C)n(C)c1C | inactive: -15.1% | – |
| COc1cccc(CNC(=O)c2ccc3c(c2)sc2nc(-c4cccc(OC)c4)cn23)c1 | inactive: 0.455% | – |
| O=[N+]([O-])c1ccc(Nc2nc(Cl)nc(NCCO)n2)cc1 | inactive: -15.4% | – |
| COCc1nnc(NC(=O)CCCOc2ccccc2OC)s1 | inactive: -5% | – |

| Compound | activity change, negative = inhibition | Potency |
| --- | --- | --- |
| CC(=O)N/C(=C/c1ccc2c(c1)OCO2)C(=O)N1CCOCC1 | inactive: -38.3% | – |
| CCN(CC)Cc1cc(O)c(CN(CC)CC)cc1O | – | active: 17.8 µM |
| COC(=O)c1ccc(S(=O)(=O)N2CCc3ccccc32)cc1 | – | inconclusive: 100 µM [inhibitor, single point] |
| COc1ccc(NC(=O)/C=C/c2cc(Br)ccc2OC)cc1 | inactive: 0.663% | – |
| COc1ccc(N2CCN(C(=O)c3cccc(Br)c3)CC2)c([N+](=O)[O-])c1 | – | active: 39.8 µM |
| Cc1ccc2nc(Nc3nc(-c4ccccc4)cc(=O)[nH]3)nc(C)c2c1 | inactive: -1.76% | – |
| CCn1c(C)[n+](CCOC(C)=O)c2cc(Cl)c(Cl)cc21 | – | inconclusive: 89.1 µM [inhibitor, single point] |
| Nc1c(Cl)ncnc1N/N=C/c1ccccn1 | – | active: 5.62 µM |
| O=C(NN=C1CCC(=NNC(=O)c2ccccn2)CC1)c1ccccn1 | – | active: 7.94 µM |
| CCCC(=O)NC(c1ccccc1Cl)c1c(O)ccc2ccccc12 (centres undefined) | – | inconclusive: 89.1 µM [inhibitor, single point] |
| CCC(=O)N1c2ccccc2CC1C(=O)NCCN1CCN(c2cc(Cl)ccc2C)CC1 (centres undefined) | – | inconclusive: 79.4 µM [inhibitor, single point] |
| Cc1ccc2c(c1)c1c(n2CC(O)Cn2c(C)nc3ccccc32)C(=O)CCC1 (centres undefined) | inactive: -5.65% | – |
| CC(=O)c1ccc(N2CCC(c3cc(-c4ccc(Cl)cc4Cl)n[nH]3)CC2)c([N+](=O)[O-])c1 | – | inconclusive: 39.8 µM [inhibitor, full curve] |
| O=c1cc(CSc2nnnn2-c2ccccc2)nc(Nc2ccc(F)cc2)[nH]1 | – | inconclusive: 89.1 µM [inhibitor, single point] |
| CCn1c(SCC(=O)NCCc2ccccc2)nnc1-c1ccco1 | inactive: -3.29% | – |
| Cc1ccc(C)c(N2CCN(c3ccc4cc(S(=O)(=O)N5CCCCC5)ccc4n3)CC2)c1 | – | inconclusive: 89.1 µM [inhibitor, single point] |
| O=c1cc(/C=C/c2c(F)cccc2Cl)[nH]c2ccccc12 | – | inconclusive: 89.1 µM [inhibitor, single point] |
| O=C(COC(=O)c1ccccc1[N+](=O)[O-])Nc1nnc(-c2ccccc2)o1 | – | inconclusive: 79.4 µM [inhibitor, single point] |
| C[C@@H](C(=O)NCCc1ccc(F)cc1)N1C(=O)N2CCc3c([nH]c4ccccc34)[C@@]2(C)C1=O | – | inconclusive: 39.8 µM [inhibitor, partial curve] |
| COc1cc(C2CC(=O)c3c([nH]c(C(=O)OC4CCCC4)c3C)C2)cc(OC)c1OC (centres undefined) | – | inconclusive: 31.6 µM [inhibitor, partial curve] |
| Cn1cccc1-c1cc(C(=O)N/N=C/c2ccccc2Cl)[nH]n1 | – | inconclusive: 22.4 µM [inhibitor, partial curve] |
| CCOC(=O)N1CCC(NCCNC(=O)c2ccccc2)CC1 | – | active: 44.7 µM |
| Cc1noc(/C=C/c2ccccn2)c1[N+](=O)[O-] | – | inconclusive: 39.8 µM [inhibitor, partial curve] |
| O=C(CCCn1c(=S)[nH]c2ccsc2c1=O)NCc1ccco1 | – | inconclusive: 89.1 µM [inhibitor, single point] |
